{"source": "PubChem BioAssay (Tox21)", "key": {"[1]": {"experiment": "A CellTox Green Cytotoxicity Assay to monitor cytotoxicity in HEK293 cells - 32 hour (AID 1224881); also: nearly all actives have a fitted effect of over 40% in size", "summary_of_the_method": "(§1)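 Fluorescence intensity, read at 0, 8, 16, 24, 32 and 40 h of compound treatment, reflected dye binding to DNA of dead HEK293 cells; compounds (23 nL, DMSO) were added 5 h after plating cells with reagent.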"}, "[2]": {"experiment": "A CellTox Green Cytotoxicity Assay to monitor cytotoxicity in HepG2 cells - 0 hour (AID 1224882)", "summary_of_the_method": "(§2)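 Using 1536-well format, dye-containing HepG2 suspension was seeded, allowed 5 h at 37 C/5% CO2, dosed by pintool with compounds, positive and negative controls, and imaged for fluorescence across 40 h.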"}, "[3]": {"experiment": "A CellTox Green Cytotoxicity Assay to monitor cytotoxicity in HepG2 cells - 32 hour (AID 1224883)", "summary_of_the_method": "as §2"}, "[4]": {"experiment": "A CellTox Green Cytotoxicity Assay to monitor cytotoxicity in HEK293 cells - 8 hour (AID 1224884)", "summary_of_the_method": "as §1"}, "[5]": {"experiment": "qHTS RealTime-Glo MT Cell Viability Assay in HepG2 cells - 16 hour (AID 1224885)", "summary_of_the_method": "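qHTS, HepG2, 600 cells/well, RealTime-Glo (NanoLuc + prosubstrate) added with cells; 5 h preincubation; DMSO compound addition; 37 C; luminescence at 0/8/16/24/32/40 h.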"}, "[6]": {"experiment": "A CellTox Green Cytotoxicity Assay to monitor cytotoxicity in HEK293 cells - 16 hour (AID 1224888)", "summary_of_the_method": "as §1"}, "[7]": {"experiment": "A CellTox Green Cytotoxicity Assay to monitor cytotoxicity in HepG2 cells - 8 hour (AID 1224890)", "summary_of_the_method": "as §2"}, "[8]": {"experiment": "qHTS assay to identify small molecule antagonists of the estrogen receptor alpha (ER-alpha) signaling pathway using the BG1 cell line in the presence of 0.1 nM 17-beta-estradiol - cell viability counter screen (AID 1259241)", "summary_of_the_method": "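Measures cytotoxicity alongside the ER-alpha antagonist readout: VM7Luc4E2 cells, charcoal-stripped serum, 0.1 nM 17beta-estradiol final, 22 hr compound incubation at 37C, CellTiter-Fluor fluorescence.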"}, "[9]": {"experiment": "qHTS RealTime-Glo MT Cell Viability Assay in HEK293 cells - 0 hour (AID 1224880)", "summary_of_the_method": "(§3)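 Viable HEK293 cells reduce a cell-permeant prosubstrate; the product diffuses out and is consumed by NanoLuc in the medium to give light. Compounds went in after a 5 h incubation and plates were read over the treatment course.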"}, "[10]": {"experiment": "qHTS assay to identify small molecule antagonists of the androgen receptor (AR) signaling pathway using the MDA cell line in the presence of 0.5 nM R1881 - cell viability counter screen (AID 1259242)", "summary_of_the_method": "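Viability of MDA-kb2 cells was multiplexed with the luciferase AR readout; after 16 hr with compounds and R1881 at 0.5 nM final, CellTiter-Fluor fluorescence was recorded.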"}, "[11]": {"experiment": "qHTS RealTime-Glo MT Cell Viability Assay in HEK293 cells - 24 hour (AID 1224886)", "summary_of_the_method": "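Assay medium contained NanoLuc luciferase plus cell-permeant prosubstrate, added with HEK293 cells at 600 cells/well. After 5 h at 37 C/5% CO2 compounds were added; plates stayed at 37 C for 40 h with serial luminescence reads.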"}, "[12]": {"experiment": "qHTS RealTime-Glo MT Cell Viability Assay in HEK293 cells - 8 hour (AID 1224887)", "summary_of_the_method": "as §3"}, "[13]": {"target": "Androgen receptor (Homo sapiens) (UniProt P10275)", "sequence (P10275 whole entry, looked up)": "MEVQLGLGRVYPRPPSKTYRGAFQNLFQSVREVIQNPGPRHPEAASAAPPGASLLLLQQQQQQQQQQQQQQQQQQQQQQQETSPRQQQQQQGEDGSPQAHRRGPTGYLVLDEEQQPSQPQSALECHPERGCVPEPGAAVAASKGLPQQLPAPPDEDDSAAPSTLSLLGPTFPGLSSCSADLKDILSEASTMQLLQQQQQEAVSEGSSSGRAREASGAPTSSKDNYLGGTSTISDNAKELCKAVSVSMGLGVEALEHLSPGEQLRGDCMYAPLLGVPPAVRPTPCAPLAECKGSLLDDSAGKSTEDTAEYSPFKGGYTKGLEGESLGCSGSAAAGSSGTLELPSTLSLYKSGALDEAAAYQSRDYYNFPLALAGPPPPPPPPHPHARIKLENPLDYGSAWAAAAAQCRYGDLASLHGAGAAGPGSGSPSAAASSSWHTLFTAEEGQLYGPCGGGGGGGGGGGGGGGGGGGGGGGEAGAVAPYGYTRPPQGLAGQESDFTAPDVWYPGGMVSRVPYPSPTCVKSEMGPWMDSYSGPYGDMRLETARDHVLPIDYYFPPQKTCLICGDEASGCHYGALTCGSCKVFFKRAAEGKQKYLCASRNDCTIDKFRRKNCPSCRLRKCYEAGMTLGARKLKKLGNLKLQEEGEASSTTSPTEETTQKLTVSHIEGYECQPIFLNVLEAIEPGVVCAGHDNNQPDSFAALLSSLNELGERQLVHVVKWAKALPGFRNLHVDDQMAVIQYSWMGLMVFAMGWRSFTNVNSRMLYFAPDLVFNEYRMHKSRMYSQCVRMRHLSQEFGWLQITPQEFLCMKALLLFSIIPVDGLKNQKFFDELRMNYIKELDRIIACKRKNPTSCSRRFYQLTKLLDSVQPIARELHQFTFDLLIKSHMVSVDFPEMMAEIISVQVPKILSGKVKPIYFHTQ", "experiment": "qHTS assay to identify small molecule antagonists of the androgen receptor (AR) signaling pathway using the MDA cell line in the presence of 0.5 nM R1881 (AID 1259243)", "summary_of_the_method": "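Reporter cells cultured without CO2 receive test chemicals, then 0.5 nM R1881 final; after 16 hr at 37C, ONE-Glo is added and light output recorded.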"}}, "note": "Inconclusive results, whose numbers are uncertain, are shown with a selection of clear calls. For some of these results: No potency is given beside an inconclusive call; the fits are too rough. Active and inactive are the calls of the source. Calls follow the shape of the dose curve; as a rule, active = well fitted curve in the direction sought with a large enough effect in the repeat runs; inconclusive = weak or mixed curves; inactive = no such curve, though single readings can be large; an effect the other way counts as inactive or inconclusive. Potency is read from the fitted curve at half-maximal effect; tags tell the direction and shape of the fitted curve.", "data": [{"smiles": "Oc1ccc([C@H]2CNCc3c2ccc(O)c3O)cc1O", "values": [{"measurement": "Potency", "setting": "[1]", "result": "inconclusive [activator, single point]"}, {"measurement": "Potency", "setting": "[2]", "result": "inconclusive [activator, single point]"}, {"measurement": "Potency", "setting": "[3]", "result": "active: 26.8 µM"}, {"measurement": "Potency", "setting": "[4]", "result": "active: 26.8 µM"}, {"measurement": "Potency", "setting": "[5]", "result": "inconclusive [cytotoxic, partial curve]"}, {"measurement": "Potency", "setting": "[6]", "result": "active: 26.8 µM"}, {"measurement": "Potency", "setting": "[7]", "result": "active: 26.8 µM"}, {"measurement": "Potency", "setting": "[8]", "result": "inconclusive [cytotoxic, partial curve, poor fit]"}]}, {"smiles": "COc1ccc(C=O)cc1OC", "values": [{"measurement": "Potency", "setting": "[1]", "result": "inactive"}, {"measurement": "Potency", "setting": "[3]", "result": "inactive"}]}, {"smiles": "CNC(=O)Oc1cccc2c1OC(C)(C)O2", "values": [{"measurement": "Potency", "setting": "[1]", "result": "inconclusive [activator, single point]"}, {"measurement": "Potency", "setting": "[4]", "result": "inconclusive [activator, single point]"}, {"measurement": "Potency", "setting": "[6]", "result": "inconclusive [activator, single point]"}]}, {"smiles": "ClCCBr", "values": [{"measurement": "Potency", "setting": "[1]", "result": "inactive"}]}, {"smiles": "CSC1=N[C@@](C)(c2ccccc2)C(=O)N1Nc1ccccc1", "values": [{"measurement": "Potency", "setting": "[9]", "result": "inconclusive [rising, partial curve]"}, {"measurement": "Potency", "setting": "[8]", "result": "inconclusive [cytotoxic, full curve]"}, {"measurement": "Potency", "setting": "[10]", "result": "active: 27.3 µM"}]}, {"smiles": "CNC(=O)Oc1cc(C)c(SC)c(C)c1", "values": [{"measurement": "Potency", "setting": "[1]", "result": "inconclusive [activator, single point]"}, {"measurement": "Potency", "setting": "[11]", "result": "inconclusive [cytotoxic, partial curve]"}, {"measurement": "Potency", "setting": "[12]", "result": "inconclusive [cytotoxic, single point]"}, {"measurement": "Potency", "setting": "[6]", "result": "active: 21.9 µM"}, {"measurement": "Potency", "setting": "[13]", "result": "inconclusive [inhibitor, full curve]"}]}]}
